Data from the supplement of paper PMC12217912.
This is one part of the list. The full chains were built here from the parent and the listed change. Values near 0.05 are background.

B1: TEV protease; numbered along this chain (parent)
chain: MGESLFKGPRDYNPISSSICHLTNESDGHTTSLYGIGFGPFIITNKHLFRRNNGTLVVQSLHGVFKVKDTTTLQQHLVDGRDMIIIRMPKDFPPFPQKLKFREPQREERICLVTTNFQTKSMSSMVSDTSCTFPSGDGIFWKHWIQTKDGQCGSPLVSTRDGFIVGIHSASNFTNTNNYFTSVPKNFMELLTNQEAQQWVSGWRLNADSVLWGGHKVFMVKPEEPFQPVKEATQL

Variants of: B1
Experiment: raw area under fraction-flipped curve 0-4 h after induction (AUC4h, not background-subtracted), DNA-recorder readout of cleavage of the substrate (dimensionless); higher = more cleavage of the substrate by the protease variant
Details: temperature: 34 °C; time window: 0-4 h after rhamnose induction
Protocol: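 In vivo DNA recorder in E. coli TOP10(DE3) ΔrhaA at 34 °C. Each TEVp single-site mutant (parent TEVp 0) is paired with a single-site variant of the 7-mer TEVs (canonical ENLYFQ|S). The substrate sits between flexible linkers in a Bxb1-sfGFP-TEVs-SsrA fusion, so cleavage stabilises Bxb1 and speeds flipping of a recombination array, read by NGS. The value is the raw area under the fraction-flipped curve over 0-4 h after rhamnose induction (AUC4h), with ≥20 reads per time point. It is not background-subtracted; inactive controls average about 0.047.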
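Further: Bxb1 expression induced with 0.2% (w/v) L-rhamnose at OD600 near 0.5, cultures sampled hourly, flipped fraction per protease–substrate barcode pair counted by paired-end Illumina sequencing.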

Row | Variant | area with substrate ECLYFQS | area with substrate EFLYFQS | area with substrate EGLYFQS | area with substrate EILYFQS | area with substrate EKLYFQS | area with substrate EQLYFQS | area with substrate EVLYFQS | area with substrate EWLYFQS | area with substrate EELYFQS | area with substrate ELLYFQS
1 | L99N | 0.108 | 0.0822 | 0.117 | 0.0577 | 0.117 | 0.0972 | 0.078 | 0.0885 |  | 
2 | I86C | 0.0985 |  |  | 0.0679 | 0.0473 | 0.103 | 0.0837 |  | 0.0597 | 0.0855
3 | V78E | 0.0714 |  | 0.0611 | 0.0667 | 0.0744 | 0.0887 | 0.0863 | 0.073 | 0.0828 | 0.0703
4 | V78D | 0.082 |  | 0.0682 |  | 0.0669 |  | 0.0591 | 0.0471 | 0.104 | 0.0588
5 | V78I | 0.1 |  |  |  | 0.0969 | 0.0768 |  |  | 0.126 | 
6 | G150Y | 0.0578 |  | 0.0691 | 0.0528 |  |  | 0.0937 |  |  | 
7 | W199S | 0.0543 |  |  |  | 0.0606 | 0.067 | 0.0506 |  | 0.0691 | 
8 | V229D | 0.129 |  |  |  |  |  | 0.0789 |  |  | 
9 | S158V | 0.0532 | 0.0725 | 0.0456 | 0.0502 | 0.0318 | 0.0604 | 0.0602 | 0.0662 | 0.0419 | 0.046
10 | G202W | 0.0631 | 0.068 | 0.0685 |  |  |  | 0.0706 |  |  | 
11 | L191Q | 0.0477 | 0.0671 |  | 0.0523 | 0.0533 |  |  |  | 0.0903 | 
12 | S182E | 0.0758 |  |  | 0.0849 | 0.106 | 0.0704 |  |  |  | 0.0722
13 | S182H | 0.0755 | 0.0878 |  | 0.0645 |  |  | 0.0613 |  |  | 0.0688
14 | S201E | 0.102 |  |  | 0.0811 |  |  | 0.0928 | 0.112 | 0.109 | 
15 | L22M | 0.0909 |  | 0.0952 | 0.143 | 0.119 | 0.1 | 0.0729 | 0.0827 | 0.111 | 0.0528
16 | T44M | 0.0662 | 0.0694 |  | 0.0616 | 0.0538 | 0.0623 | 0.0683 | 0.0676 | 0.0818 | 0.0458
17 | I85H | 0.0775 |  | 0.0515 |  | 0.0445 | 0.0615 |  | 0.07 |  | 
18 | G153C | 0.0506 |  |  |  | 0.0596 | 0.054 |  |  |  | 

Row | Variant | area with substrate ECLYFQS | area with substrate EFLYFQS | area with substrate EGLYFQS | area with substrate EILYFQS | area with substrate EKLYFQS | area with substrate EQLYFQS | area with substrate EVLYFQS | area with substrate EWLYFQS | area with substrate EELYFQS | area with substrate ELLYFQS
19 | G153L | 0.0481 |  |  |  | 0.0669 | 0.046 |  | 0.0371 |  | 
20 | G153M | 0.0549 |  |  |  | 0.0486 | 0.0642 | 0.0436 | 0.0483 |  | 
21 | G153T | 0.0514 |  |  | 0.0336 |  |  | 0.0409 | 0.0488 | 0.0607 | 0.0321
22 | V183G | 0.0658 |  | 0.0358 | 0.0423 | 0.039 | 0.0526 | 0.0564 |  |  | 
23 | K90A | 0.0916 |  |  |  |  |  |  |  | 0.113 | 
24 | S171Y | 0.0706 |  |  |  |  | 0.0477 | 0.0681 | 0.0458 |  | 0.0593
25 | F92L | 0.108 | 0.116 |  |  | 0.0893 | 0.157 | 0.0827 |  |  | 0.11
26 | F92V | 0.0805 |  | 0.0953 |  | 0.0917 | 0.122 |  |  |  | 0.0585
27 | T115K | 0.107 |  | 0.114 |  | 0.105 | 0.128 |  |  | 0.134 | 
28 | D82M | 0.059 |  | 0.0608 | 0.0497 |  | 0.0456 |  |  |  | 
29 | A170K | 0.0642 | 0.0776 | 0.0617 | 0.0336 | 0.0543 |  |  | 0.0538 |  | 0.0561
30 | F187G | 0.0706 | 0.0644 |  | 0.0481 | 0.0449 |  |  |  |  | 
31 | T114N | 0.19 |  |  |  |  |  |  |  | 0.129 | 
32 | E25S | 0.133 |  | 0.087 | 0.095 | 0.108 |  | 0.107 |  |  | 0.0865
33 | S209G | 0.1 |  |  | 0.11 |  |  | 0.0897 |  |  | 0.0681
34 | P228Y | 0.116 |  |  | 0.0695 | 0.0687 |  | 0.0831 |  | 0.11 | 
35 | S135H | 0.0636 |  | 0.0667 |  |  |  |  |  | 0.0721 | 0.0755

Same assay, conditions: temperature: 34 °C; time window: 0-4 h after rhamnose induction

Row | Variant | area with substrate EPLYFQS | area with substrate ERLYFQS | area with substrate ESLYFQS | area with substrate EDLYFQS | area with substrate EHLYFQS | area with substrate EMLYFQS | area with substrate EYLYFQS | area with substrate ETLYFQS
36 | I86C | 0.108 | 0.0852 | 0.0812 |  |  |  |  | 
37 | V78E | 0.0801 | 0.0617 | 0.0746 | 0.0858 | 0.0631 | 0.0717 | 0.08 | 
38 | V78D |  | 0.0628 | 0.0748 | 0.0327 | 0.0571 | 0.0718 |  | 
39 | V78I | 0.111 |  |  | 0.142 |  | 0.121 | 0.134 | 
40 | G150Y |  |  | 0.0515 | 0.0613 |  |  |  | 
41 | W199S |  | 0.079 | 0.0609 |  |  |  | 0.0575 | 
42 | V229D |  |  | 0.099 |  | 0.0797 | 0.0844 |  | 
43 | S158V | 0.0584 | 0.0556 | 0.0543 | 0.0508 | 0.0642 |  |  | 
44 | G202W | 0.0613 | 0.0552 | 0.06 | 0.04 | 0.0535 |  |  | 
45 | L191Q | 0.0525 |  | 0.0574 | 0.0618 | 0.081 | 0.0635 |  | 
46 | S182E | 0.0863 | 0.0635 | 0.0998 |  |  | 0.074 | 0.0659 | 0.0821
47 | S182H | 0.0879 |  | 0.0796 |  |  | 0.0809 |  | 
48 | S201E |  |  |  | 0.108 | 0.0897 | 0.0897 |  | 0.107
49 | L22M | 0.0925 | 0.0752 | 0.106 |  | 0.145 | 0.117 | 0.0918 | 
50 | T44M | 0.0622 |  | 0.0504 |  | 0.0053 | 0.0648 | 0.0627 | 
51 | I85H |  | 0.0655 |  |  |  |  |  | 
52 | G153C | 0.0547 | 0.0601 | 0.0526 |  | 0.0555 |  |  | 0.0558

Row | Variant | area with substrate EPLYFQS | area with substrate ERLYFQS | area with substrate ESLYFQS | area with substrate EDLYFQS | area with substrate EHLYFQS | area with substrate EMLYFQS | area with substrate EYLYFQS | area with substrate ETLYFQS
53 | G153L | 0.0506 | 0.0562 | 0.0321 |  |  |  |  | 0.0715
54 | G153M |  |  | 0.0936 | 0.0484 |  |  |  | 
55 | G153T | 0.0365 | 0.0442 | 0.0497 | 0.0614 | 0.141 | 0.0444 | 0.0554 | 
56 | V183G |  | 0.0656 | 0.0521 |  | 0.0657 |  | 0.0523 | 0.0599
57 | K90A | 0.104 |  | 0.101 |  |  |  |  | 
58 | S171Y | 0.0552 |  | 0.0612 |  |  |  | 0.0606 | 
59 | F92L | 0.114 | 0.0989 |  |  | 0.136 | 0.104 |  | 
60 | F92V | 0.117 | 0.106 | 0.0835 |  |  | 0.123 |  | 
61 | T115K |  | 0.113 | 0.0963 | 0.11 | 0.125 | 0.1 |  | 
62 | D82M |  | 0.0499 | 0.0544 | 0.0405 |  | 0.0446 |  | 
63 | A170K |  |  |  |  |  | 0.06 |  | 0.0708
64 | F187G |  | 0.0664 | 0.0618 | 0.0705 | 0.0654 | 0.0691 |  | 0.0718
65 | T114N |  | 0.197 | 0.087 |  |  | 0.125 |  | 
66 | E25S | 0.111 | 0.105 | 0.121 | 0.0973 | 0.129 | 0.157 | 0.102 | 0.029
67 | S209G |  | 0.0737 | 0.0749 | 0.122 | 0.103 | 0.0892 |  | 0.109
68 | P228Y |  | 0.104 | 0.0967 |  | 0.107 |  | 0.102 | 0.106
69 | S135H |  | 0.0675 | 0.0637 | 0.0749 | 0.0646 | 0.0693 |  | 
